Test results as given in PubChem BioAssay AID624296 (National Center for Advancing Translational Sciences (NCATS), 2012).
Hit rate of the full screen: of about 350,000 compounds, about 9,900 (2.8%) were called active. This list was built around the results that the source calls inconclusive (neither active nor inactive); the mix of calls is not that of the screen. The call rests on the fitted dose curve; in most records, active means well fitted activation curve with a large enough effect; inconclusive means small, poorly fitted or top-dose-only effect; inactive means no such curve, though single readings can be large or run the other way. Potencies of inconclusive entries are left out as doubtful fits.

Assay: A quantitative high throughput screen for small molecules that induce DNA re-replication in MCF 10a normal breast cells. Further: nearly all actives have a fitted effect of over 50% in size. On activity, positive = re-replication: % of control where 0% means no effect.
Conditions: MCF 10A DNA re-replication, Hoechst nuclear intensity, 48 h; activity, positive = re-replication: at 46.1 µM (top of the series)
Potency means the concentration at half of the fitted maximal effect; tags describe the fitted curve by direction and shape.

Question: For `CCC(C)(C)C1CCc2c(sc(NC(=O)c3cccs3)c2C(N)=O)C1` (stereo not given), which “activity, positive = re-replication” value is on record?
Answer: inactive: 2.1%

Question: Which Potency does the source give for `COc1ccc(CCNC(=O)c2sc3ccccc3c2Cl)cc1OC` here?
Answer: inconclusive [activator, single point]

Question: For `C=CCn1c(=N)n(CC(=O)c2ccc(Br)cc2)c2ccccc21`, which Potency is on record?
Answer: inconclusive [activator, single point]

Question: Which Potency does the source give for `COc1ccc(C2CC(O)(c3ccccc3)Oc3cc(OC)c(OC)c(OC)c32)cc1` (stereo not given) here?
Answer: inconclusive [activator, single point]

Question: For `COc1cc(/C=N/NC(=O)c2ccncc2)ccc1OC(=O)c1ccco1`, which “activity, positive = re-replication” value is on record?
Answer: inactive: -18.3%

Question: With `O=C(OCc1cccc(C(F)(F)F)c1)c1cc(S(=O)(=O)N2CCOCC2)ccc1F` as the molecule, how does the Potency read?
Answer: inconclusive [activator, single point]

Question: For `CCOC(=O)N1CCN(c2ccc(C(F)(F)F)cn2)CC1`, which Potency is on record?
Answer: inconclusive [activator, partial curve, poor fit]

Question: Which Potency does the source give for `COc1ccc(-n2c(COc3ccc(C)cc3)nnc2SCC(=O)O)cc1` here?
Answer: inconclusive [activator, partial curve, poor fit]

Question: With `Cc1ccc(N(C)S(=O)(=O)c2c[nH]c3ccc([N+](=O)[O-])cc23)cc1` as the molecule, how does the Potency read?
Answer: inconclusive [activator, partial curve, poor fit]

Question: With `O=C(CSc1nc(=O)n2ccccc2n1)N1CCCCCC1` as the molecule, how does the “activity, positive = re-replication” value read?
Answer: inactive: -1.65%

Question: For `O=S(=O)(/N=C(/Nc1ccccn1)c1ccccc1)c1ccccc1`, which Potency is on record?
Answer: inconclusive [activator, partial curve, poor fit]

Question: For `OC1(c2cccc(C(F)(F)F)c2)CCN(CCN2CCCCC2)CC1`, which Potency is on record?
Answer: inconclusive [activator, single point]

Question: Which Potency does the source give for `CSCC[C@H](NC(=O)CC(C)(C)C)c1nc2ccccc2[nH]1` here?
Answer: inconclusive [activator, full curve, poor fit]

Question: With `CC1CCCC(NC(=O)CSc2ncnc3ccccc23)C1C` (stereo not given) as the molecule, how does the Potency read?
Answer: inconclusive [activator, single point]

Question: Which Potency does the source give for `CCOC(=O)c1oc2ccccc2c1CSc1nnnn1-c1ccccc1` here?
Answer: inconclusive [activator, single point]

Question: Which Potency does the source give for `CCCC(=O)Nc1ccccc1NC(=O)C1CCCCC1` here?
Answer: inconclusive [activator, partial curve, poor fit]

Question: For `O=C1C(=O)N(C/C=C/c2ccccc2)c2ccccc21`, which Potency is on record?
Answer: inconclusive [activator, single point]

Question: With `COc1ccc(C)c(Cn2c(-c3nonc3N)nc3ccccc32)c1` as the molecule, how does the Potency read?
Answer: inconclusive [activator, full curve, poor fit]

Question: For `CCc1cc2c(N3CCCCC3)ncnc2s1`, which Potency is on record?
Answer: inconclusive [activator, single point]

Question: With `Cn1nc(C(F)(F)F)cc1-c1ccc(S(N)(=O)=O)s1` as the molecule, how does the Potency read?
Answer: inconclusive [activator, full curve, poor fit]

Question: For `COc1cc(/C=N/n2nnnc2N)cc(OC)c1OC`, which “activity, positive = re-replication” value is on record?
Answer: inactive: 9.16%

Question: Which Potency does the source give for `C=CCn1c(O)c(C=Nc2ccc(CN3CCCCC3)cc2)c(=O)[nH]c1=S` here?
Answer: inconclusive [activator, single point]

Question: Which Potency does the source give for `Cc1ccc(S(=O)(=O)N(CC(=O)Nc2cccnc2)c2cccc(Br)c2)cc1` here?
Answer: inconclusive [activator, single point]

Question: Which Potency does the source give for `CCOC(=O)C1=CN(Cc2cccc(F)c2)S(=O)(=O)NC1c1cccc(OC)c1` (stereo not given) here?
Answer: inconclusive [activator, partial curve, poor fit]

Question: Which “activity, positive = re-replication” value does the source give for `Cc1ccccc1C1=NC(c2ccc(F)cc2F)ON1` (stereo not given) here?
Answer: inactive: -3.74%

Question: For `C[C@H]1CN([C@@H](C)CO)C(=O)Cc2cc(NC(=O)CCC(F)(F)F)ccc2O[C@H]1CN(C)S(=O)(=O)c1ccc(F)cc1`, which Potency is on record?
Answer: active: 14.6 µM

Question: Which “activity, positive = re-replication” value does the source give for `Cc1nn(-c2ccccc2)c(Cl)c1C(=O)NC1CCCCC1` here?
Answer: inactive: 26.5%

Question: For `CCCn1c(=O)[nH]c(=O)c2c(C(=O)OCC)cc(-c3cccs3)nc21`, which Potency is on record?
Answer: inconclusive [activator, partial curve, poor fit]

Question: For `c1ccc2c(c1)Nc1nccnc1S2`, which Potency is on record?
Answer: inconclusive [activator, single point]

Question: Which “activity, positive = re-replication” value does the source give for `CC1Cc2ccccc2N1C(=O)c1cc2cccnc2n(C)c1=O` (stereo not given) here?
Answer: inactive: -0.112%

Question: For `O=C1C(Cl)=C(NCCCO)C(=O)c2ccccc21`, which Potency is on record?
Answer: inconclusive [activator, partial curve, poor fit]

Question: Which Potency does the source give for `Cc1ccc(CNC(=O)c2oc3ccc(S(=O)(=O)N4CCC5(CC4)OCCO5)cc3c2C)cc1` here?
Answer: inconclusive [activator, partial curve, poor fit]

Question: For `O=S(=O)(c1ccc(Cl)cc1)N1CCCC(c2nc(-c3ccc(F)cc3)no2)C1` (stereo not given), which “activity, positive = re-replication” value is on record?
Answer: inactive: 5.99%

Question: Which Potency does the source give for `Cc1ccc(N2CCN(C(=O)c3ccccc3Br)CC2)c(C)c1` here?
Answer: inconclusive [activator, partial curve, poor fit]

Question: Which Potency does the source give for `CCCn1nnnc1SCC(=O)NCc1ccccc1` here?
Answer: inconclusive [activator, full curve, poor fit]

Question: With `CC(=O)OCCNc1cc(SC(C)C)c2nonc2c1[N+](=O)[O-]` as the molecule, how does the “activity, positive = re-replication” value read?
Answer: inactive: -4.97%

Question: Which Potency does the source give for `CCCCS(=O)(=O)Nc1ccc2c(c1)ncn2C1CCCCC1` here?
Answer: active: 23.1 µM

Question: For `CC(C)NC(=S)N/N=C/c1cccs1`, which “activity, positive = re-replication” value is on record?
Answer: inactive: 2.89%

Question: With `CN(C)C(=S)NCc1ccccc1` as the molecule, how does the Potency read?
Answer: inconclusive [activator, single point]

Question: With `CCc1ccc(NC(=S)NC2CC3CCCC(C2)N3Cc2ccccc2)cc1` (stereo not given) as the molecule, how does the Potency read?
Answer: inconclusive [activator, single point]

Question: For `COc1ccc(NC(=O)CSc2nc3ccccc3c(=O)n2CCCC(=O)NCC2CCCO2)c(OC)c1` (stereo not given), which Potency is on record?
Answer: inconclusive [activator, partial curve, poor fit]

Question: For `O=C(CSc1nc(=O)n(CCCN2CCOCC2)c2c1CCCC2)Nc1cccc(Cl)c1`, which Potency is on record?
Answer: inconclusive [activator, partial curve, poor fit]

Question: For `CCC(=O)N1CCCN(S(=O)(=O)c2ccc(C)cc2)C1c1ccc(OC)cc1` (stereo not given), which Potency is on record?
Answer: inconclusive [activator, partial curve, poor fit]

Question: With `Cc1nnc(NC(=O)CSc2nccn2-c2cccc(C)c2C)s1` as the molecule, how does the Potency read?
Answer: inconclusive [activator, single point]

Question: For `CCOc1ccc(CC2NCCc3cc(OCC)c(OCC)cc32)cc1OCC` (stereo not given), which Potency is on record?
Answer: inconclusive [activator, single point]

Question: Which Potency does the source give for `COc1cc2c(cc1OC)C(c1cccs1)N(C(=O)c1cccnc1)CC2` (stereo not given) here?
Answer: inconclusive [activator, partial curve, poor fit]

Question: With `Cn1c(N)c(C(=O)COC(=O)CNC(=O)c2ccccc2Cl)c(=O)n(C)c1=O` as the molecule, how does the “activity, positive = re-replication” value read?
Answer: inactive: -0.281%

Question: With `O=C(Nc1ccc(Cl)c(Cl)c1)C1=Cc2ccccc2OC1` as the molecule, how does the Potency read?
Answer: active: 20.6 µM

Question: With `CC(=O)N1c2ccc(S(=O)(=O)N3CCC(C(=O)Nc4cccc(C(F)(F)F)c4)CC3)cc2CC1C` (stereo not given) as the molecule, how does the Potency read?
Answer: inconclusive [activator, single point]

Question: For `On1c(-c2ccco2)nc2c1CCc1nonc1-2`, which Potency is on record?
Answer: inconclusive [activator, partial curve, poor fit]

Question: With `COCCNC(=O)/C(C#N)=C/c1c(N2CCN(c3cccc(Cl)c3)CC2)nc2c(C)cccn2c1=O` as the molecule, how does the “activity, positive = re-replication” value read?
Answer: inactive: -0.14%

Question: With `CCOC(=O)C1CCCN(C(=O)c2cc3c(-c4cccc(OC)c4)nn(C)c3s2)C1` (stereo not given) as the molecule, how does the Potency read?
Answer: active: 6.51 µM

Question: Which Potency does the source give for `COc1ccc(Nc2nc(-c3sc(C)nc3C)cs2)cc1` here?
Answer: inconclusive [activator, full curve, poor fit]

Question: For `CNC(=O)CC1C(=O)N(c2ccc(OC)cc2)C(=S)N1NC(=O)c1cccc(F)c1` (stereo not given), which Potency is on record?
Answer: inconclusive [activator, single point]

Question: Which Potency does the source give for `Cc1cccc(OCCN2CSC(=S)N(C)C2)c1` here?
Answer: active: 5.8 µM

Question: Which Potency does the source give for `CS(=O)(=O)N1CCN(c2c(Cl)cccc2[N+](=O)[O-])CC1` here?
Answer: inconclusive [activator, single point]

Question: Which “activity, positive = re-replication” value does the source give for `Cc1cccc(C2c3[nH]c4ccccc4c3CCN2C(=O)c2ocnc2C)n1` (stereo not given) here?
Answer: inactive: 2.24%

Question: For `CC1=C(/C=C/C(C)=C/C=C/C(C)=C\C(=O)O)C(C)(C)CCC1`, which “activity, positive = re-replication” value is on record?
Answer: inactive: 1.02%

Question: For `Cc1cc(C(=O)Nc2ccccn2)no1`, which “activity, positive = re-replication” value is on record?
Answer: inactive: 5.97%

Question: For `Cc1nn2c(N)c(C#N)cnc2c1-c1ccc(Cl)cc1`, which “activity, positive = re-replication” value is on record?
Answer: inactive: -1.95%

Question: For `CC(=O)c1ccc(NC(=O)CSc2nc(C3CC3)nc3ccccc23)cc1`, which Potency is on record?
Answer: inconclusive [activator, single point]

Question: For `CC/C(=C(/CC)c1ccc(O)cc1)c1ccc(O)cc1`, which Potency is on record?
Answer: active: 23.7 µM

Question: With `Cc1ccc(NS(=O)(=O)c2cc(NC(=O)c3ccc4c(c3)NC(=O)CS4)ccc2C)c(C)c1` as the molecule, how does the Potency read?
Answer: inconclusive [activator, single point]

Question: With `O=C(N/N=C/c1ccncc1)NC12CC3CC(CC(C3)C1)C2` as the molecule, how does the Potency read?
Answer: inconclusive [activator, single point]

Question: For `O=C(Cn1ncc(Cl)c(Cl)c1=O)c1ccc2c(c1)OCCO2`, which Potency is on record?
Answer: active: 2.91 µM

Question: Which “activity, positive = re-replication” value does the source give for `Cc1csc2nc(CSc3ccc(Cl)cc3)cn12` here?
Answer: inactive: 29.3%

Question: Which Potency does the source give for `CCN(CC)c1ccc(/C=N/Nc2nc3ccccc3[nH]2)cc1` here?
Answer: active: 9.2 µM

Question: For `CCCCC(CC)C(=O)Nc1ncc([N+](=O)[O-])s1` (stereo not given), which Potency is on record?
Answer: inconclusive [activator, single point]

Question: For `CCC1CCc2c(sc(NC(=O)c3ccoc3C)c2C(N)=O)C1` (stereo not given), which Potency is on record?
Answer: inconclusive [activator, single point]

Question: For `CC1CC(C)CN(CCCNC(=O)CCC(=O)N2CC(C)Oc3ccccc32)C1` (stereo not given), which “activity, positive = re-replication” value is on record?
Answer: inactive: -1.18%
